Assay results: US20250179143A1, “SYSTEMS AND METHODS FOR CHAPERONE-MEDIATED LIGAND EXCHANGE ON MHC-I AND MHC-RELATED MOLECULES USING CHICKEN TAPBPR” (priority 2022, published 2025)

Target: MR1 C262S loaded with acetyl-6-formylpterin (Ac-6-FP) (UniProt Q95460)
Experiment: SPR; MR1 C262S/Ac-6-FP, 10 to 100 µM, over hTAPBPR^FLQ-biotin on a streptavidin chip; steady-state fit in the inset

Kd: 48 µM
Substance: hTAPBPR^FLQ (S104F, K211L, R270Q) (from UniProt Q9BX59 22-405)
